# Laboratory results from the supplement of paper PMC5919970.
# Counter-ions that a name gives are not always drawn. Over roughly 2,000 compounds, “fractional viability relative to vehicle” has its median near 0.92; the lowest 2% begin near 0.11. Some of the results follow.
# Test system: TYKNU
# Experiment: fractional viability relative to vehicle; TYKNU is a high-grade serous ovarian cancer line; higher = less growth inhibition
# Conditions: 72 h, genotype: OPA1 knockout (sgOPA1 #2)
# Method in brief: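 Drug treatment lasted 72 h, with cells grown at 37 °C in 5% CO2 in RPMI 1640 supplemented with 10% FBS. Beforehand, TYKNU control cells or their lentiCRISPRv2 knockout derivatives had been seeded at 500 cells per well into drug-stamped 384-well plates carrying a ~2100-compound library at 2 or 10 μM, in duplicate. Viability came from Cell Titer Glo luminescence, with averaged duplicate treatment wells normalised to duplicate control wells in the same plate position.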
Structure (SMILES),fractional viability (2uM),fractional viability (10uM)
CC(C)(C)OC(=O)N[C@H]1CCCCC/C=C\[C@@H]2C[C@@]2(C(=O)NS(=O)(=O)C2CC2)NC(=O)[C@@H]2C[C@@H](OC(=O)N3Cc4cccc(F)c4C3)CN2C1=O [Danoprevir (ITMN-191)],1.22,1.08
NC(=O)Nc1sc(-c2ccc(F)cc2)cc1C(N)=O,0.79,0.609
C[C@@H]1O[C@@H](OC[C@H]2O[C@@H](Oc3c(-c4ccc(O)c(O)c4)oc4cc(O)cc(O)c4c3=O)[C@H](O)[C@@H](O)[C@@H]2O)[C@H](O)[C@H](O)[C@H]1O [Rutin],1.06,1.09
Cc1nn(C)c(COc2ccc(N3CCN(S(=O)(=O)N(C)C)CC3)cc2)c1-c1cccc2c(CCCOc3cccc4ccccc34)c(C(=O)O)n(CCN3CCOCC3)c12,0.854,0.778
CCCC(=O)Nc1ccc(OCC(O)CNC(C)C)c(C(C)=O)c1 (stereo not drawn) [Acebutolol HCl],1.04,0.998
CN1[C@@H]2CC[C@H]1C[C@@H](OC(c1ccccc1)c1ccccc1)C2 [Benztropine mesylate],1.01,0.719
CCCc1nc2c(C)cc(-c3nc4ccccc4n3C)cc2n1Cc1ccc(-c2ccccc2C(=O)O)cc1 [Telmisartan],1.13,1.15
COCCCOc1cc(C[C@@H](C[C@H](N)[C@@H](O)C[C@H](C(=O)NCC(C)(C)C(N)=O)C(C)C)C(C)C)ccc1OC [Aliskiren Hemifumarate],1.13,0.937
CC1=CC(=O)c2ccccc2C1=O [Menadione],0.94,0.75
CC(=O)/N=c1/sc(S(N)(=O)=O)nn1C [Methazolamide],1.06,0.877
Cc1ccc(C(=O)N(CCCN)[C@@H](c2nc3cc(Cl)ccc3c(=O)n2Cc2ccccc2)C(C)C)cc1,0.71,0.309
COc1cc2ncnc(Nc3ccc(F)c(Cl)c3)c2cc1NC(=O)/C=C/CN1CCCCC1,0.824,0.135
CCCCC1C(=O)N(c2ccccc2)N(c2ccccc2)C1=O [Phenylbutazone],0.963,1.36
Nc1ncnc2c1nc(Br)n2[C@@H]1O[C@@H]2COP(=O)(O)O[C@H]2[C@H]1O [8-Bromo-cAMP],0.686,0.536
CNCC[C@@H](Oc1ccccc1C)c1ccccc1 [Atomoxetine HCl],0.936,0.922
Cc1ccc(C(=O)C(C)CN2CCCCC2)cc1 (stereo not drawn) [Tolperisone HCl],1.02,0.833
C[C@@H](Oc1cc(-c2cnn(C3CCNCC3)c2)cnc1N)c1c(Cl)ccc(F)c1Cl,1.09,0.316
CCC(CC)(NC(=O)C(C)C)C(=O)N[C@@H](CCCN=C(N)N)C(=O)NC1(C(=O)NC(c2ccc(F)cc2)c2ccc(F)cc2)CCCC1,0.765,0.869
Cc1cc(Nc2ncc(Cl)c(Nc3ccccc3S(=O)(=O)C(C)C)n2)c(OC(C)C)cc1C1CCNCC1,0.376,0.0286
O=C(O)Cc1cc(I)c(Oc2ccc(O)c(I)c2)c(I)c1 [Tiratricol],1.02,0.798
CC[C@H](C)C(=O)O[C@H]1C[C@H](O)C=C2C=C[C@H](C)[C@H](CC[C@@H](O)C[C@@H](O)CC(=O)O)[C@H]21 [Pravastatin sodium],1.04,0.986
CC1=C(C(=O)O)N2C(=O)[C@@H](NC(=O)[C@H](N)c3ccccc3)[C@H]2SC1 [Cephalexin],0.947,0.968
Nc1ccccc1NC(=O)c1ccc(CNc2nccc(-c3cccnc3)n2)cc1 [Mocetinostat (MGCD0103)],0.403,0.191

Structure (SMILES),fractional viability (2uM),fractional viability (10uM)
COc1cc(-c2cc(-c3ccc(N4CCNCC4)cc3)cnc2C)cc(OC)c1OC,0.878,0.835
Cc1ccc(S(=O)(=O)/C=C/C#N)cc1,0.121,0.09
CC(C)(C)OC(=O)Nc1ccc(-c2cc(C(=O)NCCCCCCC(=O)NO)no2)cc1,0.367,0.171
"COc1cc2c(cc1Cc1cccc(Cl)c1F)c(=O)c(C(=O)O)cn2[C@H](CO)C(C)C [Elvitegravir (GS-9137, JTK-303)]",0.948,0.608
COc1ccc2cc3[n+](cc2c1OC)CCc1cc2c(cc1-3)OCO2 [Berberine HCl],1.06,0.791
Cn1sc(=O)n(Cc2ccccc2)c1=O,0.609,0.104
Cc1nccn1CC1CCc2c(c3ccccc3n2C)C1=O (stereo not drawn) [Ondansetron HCl],1.01,1.07
CC(=O)NC[C@H]1CN(c2ccc(N3CCOCC3)c(F)c2)C(=O)O1 [Linezolid],1.47,1.41
COc1ccc2c(c1)c(CC(=O)OCC(=O)O)c(C)n2C(=O)c1ccc(Cl)cc1 [Acemetacin],0.993,1.01
CN1CCN(c2ccc(Nc3cc(-c4cccc(-n5ccc6cc(C7CC7)cc(F)c6c5=O)c4CO)cn(C)c3=O)nc2)CC1,0.945,0.216
CN(C)C(=O)c1cc2cnc(Nc3ccc(N4CCNCC4)cn3)nc2n1C1CCCC1,0.841,0.632
CC(=O)O[C@]1(C(C)=O)CC[C@H]2[C@@H]3C=C(C)C4=CC(=O)CC[C@]4(C)[C@H]3CC[C@@]21C [Megestrol Acetate],1.24,1.02
C=C1[C@H](CO)[C@@H](O)C[C@@H]1n1cnc2c(=O)[nH]c(N)nc21 [Entecavir Hydrate],1.01,0.935
Nc1nnc(-c2cccc(Cl)c2Cl)c(N)n1 [Lamotrigine],1.1,0.883
CCOC(=O)N[C@@H]1CC[C@@H]2[C@@H](C1)C[C@H]1C(=O)O[C@H](C)[C@H]1[C@H]2/C=C/c1ccc(-c2cccc(F)c2)cn1 [Vorapaxar],0.913,1.06
Cc1cc(Nc2cc(CN3CCOCC3)c3nc(C)c(Cc4ccc(Cl)cc4F)n3n2)n[nH]1,1.09,0.499
CC[C@@]1(O)C(=O)OCc2c1cc1n(c2=O)Cc2cc3c(CN(C)C)c(O)ccc3nc2-1 [Topotecan HCl],0.294,0.172
Nc1nc(=O)[nH]cc1F [Flucytosine],1.28,1.2
O=C(NC1CC1)c1cc(-c2cccs2)on1 [Isoxazole 9 (ISX-9)],0.794,0.676
Oc1cc(O)cc(/C=C/c2ccc(O)c(O)c2)c1 [Piceatannol],0.858,0.737
O=C(O)c1ccc(O)c2ncccc12,0.916,1.04
COc1cc2ncnc(Nc3ccc(O)c(Br)c3)c2cc1OC,1.37,1.19
COc1cc(-c2cc(-c3cccc(O)c3)cnc2N)cc(OC)c1OC,0.734,0.656

Structure (SMILES),fractional viability (2uM),fractional viability (10uM)
CCCC(=O)Nc1cccc(NC(=O)c2ccccc2Br)c1,1,1.07
CO[C@H]1C[C@@H]2CC[C@@H](C)[C@@](O)(O2)C(=O)C(=O)N2CCCC[C@H]2C(=O)O[C@H]([C@H](C)C[C@@H]2CC[C@H](n3cnnn3)[C@H](OC)C2)CC(=O)[C@H](C)/C=C(\C)[C@@H](O)[C@@H](OC)C(=O)[C@H](C)C[C@H](C)/C=C/C=C/C=C/1C [Zotarolimus(ABT-578)],0.954,1.03
CCOc1nc2cccc(C(=O)OC(C)OC(=O)OC3CCCCC3)c2n1Cc1ccc(-c2ccccc2-c2nn[nH]n2)cc1 (stereo not drawn) [Candesartan Cilexetil],1.26,1.02
Nc1ccc(S(N)(=O)=O)cc1 [Sulfanilamide],1.13,0.969
CCN1CCC[C@H]1CNC(=O)c1cc(S(N)(=O)=O)ccc1OC [Levosulpiride],1.07,0.94
CCCNS(=O)(=O)Nc1ncnc(OCCOc2ncc(Br)cn2)c1-c1ccc(Br)cc1 [Macitentan],0.84,0.867
CCC(C)(C)c1ccc(CC(C)CN2C[C@@H](C)O[C@@H](C)C2)cc1 (stereo partly drawn) [Amorolfine HCl],1.08,0.827
CC(C)N(CCC(=O)c1ccc2ccccc2c1)Cc1ccccc1,0.883,0.965
"CC(C)(C)C#Cc1cc(N(C(=O)[C@H]2CC[C@H](C)CC2)[C@H]2CC[C@H](O)CC2)c(C(=O)O)s1 [VX-222 (VCH-222, Lomibuvir)]",1.08,0.884
CCOC(=O)c1ccc(C#Cc2ccc3c(c2)C(C)(C)CCS3)nc1 [Tazarotene],0.949,0.769
Cn1c(=O)c(F)c(Nc2ccc(I)cc2F)c2c(=O)n(C[C@@H](O)CO)cnc21,0.516,0.403
COc1ccc(/C=C/C(=O)C2(C(=O)/C=C/c3ccc(OC)c(OC)c3)CCCCC2)cc1OC,0.533,0.293
COc1ccc(-c2cc3c(C)nc(N)nc3n([C@H]3CC[C@H](OCCO)CC3)c2=O)cn1,0.222,0.146
NCc1c[nH]c(=S)n1[C@H]1CCc2c(F)cc(F)cc2C1 [Nepicastat (SYN-117) HCl],0.952,0.843
CCCc1nc(C(C)(C)O)c(C(=O)OCc2oc(=O)oc2C)n1Cc1ccc(-c2ccccc2-c2nnn[nH]2)cc1 [Olmesartan Medoxomil],0.909,1.05
Cn1c(=O)c2c(ncn2CC(O)CO)n(C)c1=O (stereo not drawn) [Dyphylline],1.08,1.1
Nc1nccs1 [Aminothiazole],0.807,0.849
NC(=O)c1cccnc1 [Nicotinamide (Vitamin B3)],0.925,0.968
S=c1nc[nH]c2nc[nH]c12 [6-Mercaptopurine (6-MP) Monohydrate],0.93,0.846
Cc1c(Cn2c(C)nc3c(C(=O)O)cc(N4CCOCC4)cc32)cccc1C(F)(F)F,0.765,0.943
O=C(NCc1ccc(Oc2ccccc2)cc1)c1nc(-c2cc(Br)c(O)c(Br)c2)no1,0.899,0.399
CCCCCCCCCCCCCCCC[N+](C)(C)C [Cetrimonium Bromide (CTAB)],0.515,0.198
COc1ccc(CNCc2cccc3ccccc23)cc1,1.06,0.875
